# The campaign covered roughly 310,000 compounds. About 14,000 (4.5%) showed an effect of 50% or more. The effect is printed as a negative number. The list shows a part of the results.
# Target: human ether-à-go-go-related gene (hERG) potassium channel (human, UniProt Q12809)
# Assay: primary screen, population patch clamp on CHO cells stably expressing hERG
# 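Further: peak tail current of the secondary pulse compared with the same well before compound.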
# Chain of human ether-à-go-go-related gene (hERG) potassium channel (Q12809 whole entry, looked up): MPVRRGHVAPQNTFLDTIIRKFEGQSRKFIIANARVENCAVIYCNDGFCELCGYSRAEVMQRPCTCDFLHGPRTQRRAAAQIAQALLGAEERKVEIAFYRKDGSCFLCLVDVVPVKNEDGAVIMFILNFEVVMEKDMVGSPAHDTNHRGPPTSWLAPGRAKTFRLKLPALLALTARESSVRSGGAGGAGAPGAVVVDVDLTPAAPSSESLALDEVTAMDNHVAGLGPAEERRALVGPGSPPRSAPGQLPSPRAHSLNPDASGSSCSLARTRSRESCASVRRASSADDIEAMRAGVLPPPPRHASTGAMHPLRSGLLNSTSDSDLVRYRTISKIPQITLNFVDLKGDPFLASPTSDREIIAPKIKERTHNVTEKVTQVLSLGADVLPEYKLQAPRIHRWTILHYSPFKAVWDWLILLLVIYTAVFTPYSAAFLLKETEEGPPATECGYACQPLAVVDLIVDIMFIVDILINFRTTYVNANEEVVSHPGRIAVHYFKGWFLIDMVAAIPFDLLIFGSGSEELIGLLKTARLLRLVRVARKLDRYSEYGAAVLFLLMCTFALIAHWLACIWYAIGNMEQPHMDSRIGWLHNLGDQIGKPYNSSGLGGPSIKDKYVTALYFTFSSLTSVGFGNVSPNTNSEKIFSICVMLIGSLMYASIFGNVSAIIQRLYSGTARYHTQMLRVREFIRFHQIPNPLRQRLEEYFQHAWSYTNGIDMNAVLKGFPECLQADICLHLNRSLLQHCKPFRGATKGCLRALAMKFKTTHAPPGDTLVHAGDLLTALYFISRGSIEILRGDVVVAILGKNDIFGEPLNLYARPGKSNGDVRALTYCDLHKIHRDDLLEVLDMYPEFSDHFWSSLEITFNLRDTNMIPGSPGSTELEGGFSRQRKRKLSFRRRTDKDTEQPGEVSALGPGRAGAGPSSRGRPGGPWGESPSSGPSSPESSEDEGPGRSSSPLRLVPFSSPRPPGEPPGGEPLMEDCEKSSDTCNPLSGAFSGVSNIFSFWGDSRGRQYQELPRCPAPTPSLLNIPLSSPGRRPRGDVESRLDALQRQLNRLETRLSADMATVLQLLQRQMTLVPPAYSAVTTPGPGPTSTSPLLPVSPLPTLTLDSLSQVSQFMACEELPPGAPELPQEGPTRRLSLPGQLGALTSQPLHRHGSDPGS
row,Structure (SMILES),"hERG current change (%, negative = inhibition) at 10uM [%]"
1,C=CCNc1sc(C(=O)c2ccc(C)cc2)c(N)c1C#N,5.28
2,Cc1ccc(CNC(=O)Cn2c(=O)oc3ccccc32)o1,-3.87
3,O=C(COC(=O)Cn1cnc2ccccc21)Nc1cccc(S(=O)(=O)N2CCOCC2)c1,16
4,O=C(COC(=O)CC(c1ccccc1)c1ccccc1)Nc1cccc(F)c1,6.39
5,Cc1cc(NC(=O)CCC(=O)N(CCC(C)C)C(C(=O)NC2CCCC2)c2ccccc2C)no1 (stereo not shown),-21.5
6,C[C@]12CC[C@H]3[C@@H](CC[C@]4(O)C[C@@H](O)CC[C@]34C=O)[C@@]1(O)CC[C@@H]2C1=CC(=O)OC1,14
7,CC1=CC(C)(C(Cl)Cl)C(C)=CC1=O (stereo not shown),4.55
8,CC1CCCCC1NS(=O)(=O)c1ccc(S(=O)(=O)N2CCN(CCC#N)CC2)cc1 (stereo not shown),-31.4
9,CCS(=O)(=O)N1Cc2ccccc2CC1C(=O)N(C)Cc1ccc(OC)c(F)c1 (stereo not shown),5.07
10,COC(=O)c1cn(C(=O)c2ccc(F)cc2)c2ccccc12,3.99
11,COc1ccc(Cc2nnc(NC(=O)CS(=O)(=O)c3ccc(C)cc3)s2)cc1OC,4.16
12,COCCNC(=O)c1sc2nc(-c3ccccc3)cn2c1C,-11.5
13,Cc1ccc2cc(CN(Cc3nnnn3C3CCCCC3)CC3CCCO3)c(=O)[nH]c2c1 (stereo not shown),-38.2
14,O=C(NC(=S)Nc1ccccc1[N+](=O)[O-])c1ccccc1,6.17
15,COc1ccc2cc3cc(C(=O)N4CC(C)CC(C)C4)oc3nc2c1 (stereo not shown),-27.3
16,CCN1CCN(CCCNC(=O)C2CCCN(c3nc4c(C)cc(C)cc4s3)C2)CC1 (stereo not shown),-26.2
17,CCS(=O)(=O)c1ncc(Cl)c(C(=O)Nc2ccc(S(=O)(=O)N(C)c3ccccc3)cc2)n1,15.5
18,CCNc1cc(N2CCN(S(=O)(=O)c3ccc4c(c3)CCCC4)CC2)ccc1[N+](=O)[O-],-7.77
19,CCOC(=O)CCNC(=O)N1CCCC(C(=O)c2cccc(Cl)c2)C1 (stereo not shown),-39.1
20,O=[N+]([O-])c1cc([N+](=O)[O-])c2cc3ccccc3nc2c1,12.4
21,O=C(CSC1=NCCS1)Nc1nc2c(s1)CCCC2,-13
22,CSc1cccc(NC(=O)Cc2ccccc2[N+](=O)[O-])c1,8.4

row,Structure (SMILES),"hERG current change (%, negative = inhibition) at 10uM [%]"
1,COc1ccccc1/C=C1\SC(=S)N(CCC(=O)N2CCCCC2CCO)C1=O (stereo not shown),16.7
2,Cc1ccc2oc(-c3ccc(NC(=O)c4ccc5c(c4)OCO5)cc3)nc2c1,10.9
3,O=C(CCN1C(=O)c2cccnc2C1=O)NC1CCCCCC1,3.64
4,CC(C)=C(NC(=O)c1ccccc1)C(=O)NCCCC(=O)O,4.19
5,CCOC(=O)c1ccc(COC(=O)CCc2nc(-c3ccccc3)c(-c3ccccc3)o2)cc1,1.13
6,COc1ccc(C(CC(=O)O)NC(=O)Cc2ccccc2)cc1 (stereo not shown),3.36
7,CCOC(=O)C1CCN(S(=O)(=O)c2cccc(-c3csc(C)n3)c2)CC1,-53.5
8,Br.Cc1ccc(SCc2cn3c(C)csc3n2)cc1,-14.1
9,COc1ccc(Br)cc1S(=O)(=O)N1CC(C)OC(C)C1 (stereo not shown),-3.55
10,COc1ccc(C(=O)CCC(C)(C)[N+](=O)[O-])cc1,11.4
11,CCCCN(c1nc2ccccc2nc1Cl)S(=O)(=O)c1ccc(C)cc1,19.5
12,COc1ccccc1C(=O)NC1CCN(C(=O)Nc2ccc(F)cc2)CC1,1.11
13,COc1cccc(N=Cc2ccc(O)cc2O)c1,10.2
14,Cc1c(NC(=O)CSc2nc(-c3ccco3)cc(C(F)(F)F)n2)c(=O)n(-c2ccccc2)n1C,-3.84
15,O=C(CN1CCN(CCOCCO)CC1)N1c2ccccc2Sc2ccc(Cl)cc21,-14.9
16,CC(C)C(=O)c1cc2c(cc1NC(=O)c1cccs1)OCCO2,1.01
17,N#CC1=C(N)NC(SCc2ccccc2)=C(C#N)C12CCCCC2,-15.3
18,O=c1[nH]c(=O)n(Cc2ccco2)c2c1C(C(F)(F)F)(C(F)(F)F)N=C(Cc1ccccc1)N2,-2.7
19,CCOC(=O)C1CCCN(C(=O)/C(=C/c2ccco2)NC(=O)c2ccccc2)C1 (stereo not shown),15.1
20,COc1ccc(NC2=CC(=O)CC(c3ccccc3)C2)c(OC)c1 (stereo not shown),-11.1
21,CCOC(=O)c1ccc(NC(=O)C(C)N2C(=O)c3ccccc3C2=O)cc1 (stereo not shown),-11.5
22,Nc1ncnc(Nc2ccc(F)c(Cl)c2)n1,11.3

row,Structure (SMILES),"hERG current change (%, negative = inhibition) at 10uM [%]"
1,COc1cccc(CN(C)C(c2ccccc2)c2ccccc2)c1OC,17.5
2,CCN(CC1COc2ccccc2O1)S(=O)(=O)c1ccc(C)cc1 (stereo not shown),-3.87
3,CCOc1cc(Br)c(C(=O)O)cc1OC,0.12
4,CN(Cc1ccccc1)C(=O)CN1CCN(S(=O)(=O)c2ccc(Cl)c(Cl)c2)CC1,-32.2
5,O=C(COc1ccc(S(=O)(=O)N2CCCC2)cc1Cl)Nc1ccc2c(c1)OCO2,7.83
6,C/C=C(/C)C(=O)Nc1cccc(C2=NOC3(C2)C[C@@H](C(N)=O)N(C(=O)/C=C/CC)C3)c1 (stereo partly shown),9.09
7,Cc1sc2ncnc(N(C)CCc3ccccn3)c2c1C.O=C(O)C(=O)O,21.5
8,CCN(CC)C(=O)C(=O)c1cccn1-c1cccc(OC)c1C#N,-8.33
9,CNc1nc(C)c(C#N)c(-c2ccccc2)c1C(C)=O,-7.81
10,Cc1nc(Cl)c(N=Cc2cccc([N+](=O)[O-])c2)c(Cl)n1,24.2
11,CC(C)CN(Cc1c(O)ccc2ccccc12)CC(C)C,15.1
12,COc1ccc(N=C2O/C(=C/c3sc(=S)n(CC4CCCO4)c3O)N=C2C#N)cc1 (stereo not shown),7.37
13,O=C(O)C1=C[C@H](c2ccccc2)C[C@H](OCCCCO)O1,0.325
14,CCCNC(=O)C(=O)Nc1ccc(N(C)C)cc1,15.5
15,O=C(NNC(=O)c1ccc(Br)o1)c1ccc(NC(=O)c2ccccc2)cc1,31.9
16,CSc1oc(-c2ccccc2)nc1S(=O)(=O)c1ccc(C)cc1,12.5
17,Cc1ccc(-n2c(Cc3ccccc3)n[nH]c2=S)cc1,3.31
18,CCC(C)N=Cc1c(Nc2ccccc2)nc2c(C)cccn2c1=O (stereo not shown),17.6
19,Cc1ccc(SCC(=O)OCC(=O)NCc2cccs2)cc1C,14.8
20,CCOc1cc(C(N)=O)cc(Br)c1OCC,1.1
21,Cn1nnc(NC(=S)NC(=O)c2ccc(-c3ccc(Br)cc3)o2)n1,2.51
22,O=C(OCc1nc2ccccc2[n+]([O-])c1C(=O)c1ccccc1)c1cccnc1,-2.05

row,Structure (SMILES),"hERG current change (%, negative = inhibition) at 10uM [%]"
1,O=S(=O)(NCCOCC(F)(F)C(F)F)c1ccc2oc3ccccc3c2c1,-8.11
2,COC(=O)C1Cc2c([nH]c3ccccc23)C(C(C)C)N1 (stereo not shown),-12.4
3,CSCCC1NC(=O)N(CC(=O)Nc2c(Cl)cc(Cl)cc2Cl)C1=O (stereo not shown),-2.68
4,CCN(CC)CCN(Cc1cc2cc3c(cc2[nH]c1=O)OCCO3)C(=S)NCCCOC,12.6
5,c1ccc(COCCN2CCN(CCOCc3ccccc3)CC2)cc1,-39.5
6,CCS(=O)(=O)N1Cc2ccccc2CC1C(=O)Nc1ccc(OC)c(OC)c1 (stereo not shown),-6.57
7,COc1ccccc1N(CC(=O)Nc1ccc(S(=O)(=O)N2CCCCC2)cc1)S(C)(=O)=O,-11.2
8,Cc1nc2ncnn2c(N2CCN(C(=O)c3cccc(F)c3)CC2)c1C,-49.3
9,C=C(C)C1CC=C(C)/C(=N/NC(=O)CNc2ccc(OCC)cc2)C1 (stereo not shown),-4.96
10,CC(Cl)C(=O)c1c(N)n(C)c(=O)n(C)c1=O (stereo not shown),-0.00142
11,COC(=O)c1ccc(NC(=O)Nc2ccc(OC)c(OC)c2)cc1,21.6
12,O=C(O)c1ccccc1C(=O)Nc1ccc(-n2nccc2C(F)(F)F)cc1,17.5
13,Nc1nc(=S)[nH]c2c1C1(CCCC1)Cc1ccccc1-2,10.3
14,CCOC(=O)C1=NN(C(C)=O)C2(CC(=O)N(c3cccc(C)c3)C2=O)C1 (stereo not shown),11
15,O=C(NCC(=O)N1CCN(C(=O)c2ccco2)CC1)c1ccccc1,-7.74
16,CC(=O)c1c(N2CCOCC2)nc2ccc(Br)cc2c1-c1ccccc1,5.9
17,O=C1/C(=C/c2cccnc2)CC/C1=C\c1cccnc1,-24.5
18,NC(=O)c1ccccc1NCC(=O)c1ccc(Cl)cc1,16.4
19,Cn1c(SCC(=O)NNC(=S)Nc2ccccc2)nnc1-c1ccncc1,12.3
20,CC1CC(C)CN(C(=O)COC(=O)CNS(=O)(=O)/C=C/c2ccccc2)C1 (stereo not shown),-13
21,Cc1ccc(C2CC(c3ccco3)n3nc(N)nc3N2)cc1 (stereo not shown),-19.2
22,Cc1ccc(C(=O)OCC(=O)Nc2ccccc2Sc2ccccc2)cc1C,6.41
